# Results from PubChem BioAssay AID652104 (National Center for Advancing Translational Sciences (NCATS), 2013).
# In all, about 410,000 compounds went through this assay and about 7,200 (1.8%) were called active. Inconclusive results, whose numbers are uncertain, are shown with a selection of clear calls. The call rests on the fitted dose curve; in most records, active means well fitted activation curve with a large enough effect; inconclusive means small, poorly fitted or top-dose-only effect, or another doubt; inactive means no such curve, though single readings can be large or run the other way. Potencies of inconclusive entries are left out as doubtful fits.
# Experiment: qHTS of TDP-43 Inhibitors; further: nearly all actives have a fitted effect of over 50% in size; on growth rescue (activation): % of control where 0% means no effect
# Settings: TDP-43 expressing yeast growth rescue, BacTiter-Glo, 24 h; growth rescue (activation): at 46.1 µM (top of the series) unless noted
# How it was run: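 Galactose-induced TDP-43 yeast, OD600=0.02, compound pinned; 24 hr, 30 deg C; BacTiter-Glo luminescence for growth. Inhibitors of TDP-43 toxicity read as activators.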
# Potency means the concentration at half of the fitted maximal effect; tags describe the fitted curve by direction and shape.
SMILES,Potency,growth rescue (activation)
Cc1c(N/C=C(\Cl)C(=O)C(F)(F)F)c(=O)n(-c2ccccc2)n1C,"inconclusive [activator, partial curve]",
CCc1nnc(SCc2nc(-c3cccc(C)c3)oc2C)c2cc3sc(C)cc3n12,,inactive: 9.11%
O=C(CSc1nccn1-c1ccc(F)cc1)Nc1cccc2ccccc12,active: 17.8 µM,
Cc1cccc(NC(c2ccc(C)s2)c2ccc3ccc(C)nc3c2O)n1 (centres undefined),"inconclusive [activator, single point]",
CCCCC(=O)N1C/C=C\[C@H](c2ccc(OC)cc2)N(Cc2ccc(F)cc2)C(=O)[C@@H]1C,"inconclusive [activator, single point]",
O=C1O[C@@H](c2ccccc2)C[C@@H](O)C(=O)CCCCc2ccccc21,"inconclusive [activator, single point]",
CCN1CCN(c2cc(C)c3cc(NC(=O)/C=C/c4ccc(OCCC(C)C)cc4)ccc3n2)CC1,"inconclusive [activator, single point]",
Cc1ccc(N2CC(NC(=O)C3CCCC3)CC2=O)cc1C (centres undefined),,inactive: 22.9%
CC(=O)c1ccc(S(=O)(=O)N2CCn3cccc3C2c2ccc(F)c(F)c2)cc1 (centres undefined),"inconclusive [activator, partial curve]",
COc1ccc(CNc2ncnc3c2c(-c2ccccc2)cn3-c2cccc(C)c2)cc1,"inconclusive [activator, full curve, poor fit]",
CCc1ccc(NC(=O)Cn2c(=O)n(CCC(=O)NCCc3ccc(OC)c(OC)c3)c(=O)c3ccccc32)cc1,,inactive: 12.7%
CCC(C)S(=O)(=O)c1oc(-c2ccc(F)cc2)nc1S(=O)(=O)c1ccc(F)cc1 (centres undefined),"inconclusive [activator, single point]",
CC(NC(=O)COc1cccnc1[N+](=O)[O-])c1ccc(Cl)cc1Cl (centres undefined),"inconclusive [activator, single point]",
Cc1cc(C)cc(NC(=O)C2CCN(c3nc4ccccc4nc3C(F)(F)F)CC2)c1,,inactive: 16.6%
CCNC(=O)C1CCCN(c2nn3cc(-c4ccc(C)cc4)nc3s2)C1 (centres undefined),,inactive: 4.38%
COc1cc(-c2cnc3c(NC=O)cc(-c4ccc(C)cc4)cn23)cc(OC)c1OC,"inconclusive [activator, partial curve]",
CCOc1ccc(C(=O)NCCc2csc(-c3cccnc3)n2)cc1,"inconclusive [activator, single point]",
Cc1cc(C(F)(F)F)c2c(C)nn(CCc3nn[nH]n3)c2n1,,inactive: 6.52%
COc1ccc(Cn2cc(CN3CCc4onc(-c5ccc(Br)cc5)c4C3=O)nn2)cc1,active: 17.8 µM,
Nc1ccc(OCCCc2c(N)nc(N)nc2N)cc1,,inconclusive: -68.9% [activator]
CN1CCN(C2(CNC(=O)COc3ccc(C(C)(C)C)cc3)CCCCC2)CC1,,inactive: 4.73%
Cc1nc(NS(=O)(=O)c2ccc(Br)cc2)c2c3c(sc2n1)CCC3,"inconclusive [activator, single point]",
Cc1ccc(OCCCCn2nnc3sc4c(c3c2=O)CCC(C)C4)cc1 (centres undefined),"inconclusive [activator, partial curve]",

SMILES,Potency,growth rescue (activation)
COc1ccc(C(=O)COC(=O)CN2C(=O)C3C4C=CC(C5CC45)C3C2=O)cc1 (centres undefined),"inconclusive [activator, partial curve]",
O=C(CCl)Nc1cccc(Oc2ccccc2)c1,"inconclusive [activator, single point]",
COc1cc2c(cc1OC)-c1cc(Nc3ccccc3)nc(=O)n1CC2,,inactive: -11.9%
COc1ccc(-n2cc(-c3ccccc3)c3c(N4CCOCC4)ncnc32)cc1,"inconclusive [activator, single point]",
CCCn1c2ccccc2c2cnn(CC(=O)NCCCOC(C)C)c(=O)c21,,inactive: 15.2%
CCOc1ccc(S(=O)(=O)NCc2cccn2Cc2cccc(C)c2)cc1,"inconclusive [activator, full curve]",
CC(C)COc1ccc(C(=O)N(Cc2cccc(F)c2)C2CCS(=O)(=O)C2)cc1 (centres undefined),"inconclusive [activator, partial curve, poor fit]",
Cc1cccc(C)c1NC(=O)C1c2ccccc2OCC(=O)N1Cc1ccccc1 (centres undefined),"inconclusive [activator, single point]",
Cc1c(NS(=O)(=O)c2ccc3c(c2)OCCO3)cccc1-c1nc2cccnc2s1,active: 35.5 µM,
CCOC(=O)C1C(=O)C=C(c2ccc(OC)cc2)CC1c1ccco1 (centres undefined),active: 11.2 µM,
O=C(NCc1ccccc1)C1Nc2ccc(OC(F)(F)F)cc2C2C=CCC12 (centres undefined),active: 22.4 µM,
Cc1ccccc1S(=O)(=O)NC(=O)C1(C)CCN1C(=O)CC1CCCCC1 (centres undefined),"inconclusive [activator, partial curve]",
C=Cc1cc2c(cc1O)CCC1C2CCC2(C)C(O)CCC12 (centres undefined),"inconclusive [activator, single point]",
COc1cc(C(=O)NCc2nc(-c3ccc(Cl)cc3)no2)cc(OC)c1OC,,inactive: -6.2%
CSc1ccccc1NC(=O)CCn1c(=O)sc2ccccc21,active: 15.8 µM,
COc1cccc(CNC(=O)Cn2cccc2C(=O)c2ccccc2)c1,,inactive: 20.1%
Cc1[nH]nc(Nc2ccc(Br)cc2)c1[N+](=O)[O-],"inconclusive [activator, partial curve]",
CCc1ccc2oc(-c3ccc(NC(C)=O)cc3)nc2c1,active: 3.55 µM,
C[C@H]1COc2cccc(N3CCSCC3)c2S(=O)(=O)N1,"inconclusive [activator, partial curve]",
O=C(Nc1ccccc1[N+](=O)[O-])C1COc2ccccc2O1 (centres undefined),"inconclusive [activator, full curve]",
O=[N+]([O-])c1cc(/C=N/N/C(=N/c2ccccn2)c2ccccn2)ccc1O,"inconclusive [activator, partial curve]",
COc1cc(SC)ccc1C(=O)OCC(=O)NC(=O)NC(C)C,"inconclusive [activator, partial curve]",
O=C(CSc1nc2ccsc2c(=O)n1-c1ccc(Br)cc1)NCc1ccc(Cl)cc1,,inactive: 14.7%

SMILES,Potency,growth rescue (activation)
COc1ccc(-c2cc(C(=O)Nc3c(C)nn(Cc4ccccc4C)c3C)no2)cc1,,inactive: 4.02%
Cn1c(N2CCOCC2)nc2c1c(=O)n(Cc1ccc(Cl)c(Cl)c1)c(=O)n2C,"inconclusive [activator, single point]",
CCOc1ccc(-c2n[nH]c(C(=O)NN)c2C)cc1,"inconclusive [activator, single point]",
O=C(O)CSc1c2ccccc2cc2ccccc12,"inconclusive [activator, single point]",
O=C(Nc1ccc2c(c1)OCCO2)c1cc2sccc2n1Cc1ccccc1,"inconclusive [activator, single point]",
COc1ccccc1C(=O)N=c1sc2c(C)ccc(OC)c2n1C,"inconclusive [activator, partial curve]",
COc1ccccc1C(=O)C1CCCN(C(=O)Nc2ccccc2F)C1 (centres undefined),"inconclusive [activator, single point]",
Cc1cc(C)cc(N(CC(=O)N2CCn3c2nc2ccccc23)S(=O)(=O)c2c(C)noc2C)c1,,inconclusive: 20% [activator]
S=c1nc(-c2cc(Cl)ccc2Cl)[nH][nH]1,"inconclusive [activator, single point]",
C=CCOC(=O)C1=C[C@H](c2coc3ccccc3c2=O)C[C@H](OCc2ccc(CO)cc2)O1,"inconclusive [activator, partial curve]",
O=C(NCCCN1CCN(CCCNC(=O)c2cccc([N+](=O)[O-])c2)CC1)c1cccc([N+](=O)[O-])c1,"inconclusive [activator, single point]",
Cc1nnc(SC(C)C(=O)Nc2sc3c(c2C#N)CCCC3)[nH]c1=O (centres undefined),"inconclusive [activator, partial curve]",
CC(/C=N/Nc1nc2ccccc2[nH]1)=C\c1ccccc1,"inconclusive [activator, single point]",
Cc1ccc(C)c(-c2nnc(NC(=O)c3ccco3)o2)c1,,inconclusive: 73.4% [activator]
Cc1ccc2c(c1)-c1c(cnc3cc(-c4ccc(Cl)cc4)nn13)CO2,,inactive: 21.8%
Cc1ccc(CCNC(=O)c2sc3nc4n(c(=O)c3c2C)CCCC4)cc1,active: 15.8 µM,
CCCc1nnc(NC(=O)CN2C(=O)C3C4C=CC(C4)C3C2=O)s1 (centres undefined),"inconclusive [activator, full curve, poor fit]",
Cc1ccc2onc(CNC(=O)N3CCN(c4cc(Cl)ccc4C)CC3)c2c1,"inconclusive [activator, partial curve]",
O=C(N[C@@H]1CC[C@@H](CCn2cc(-c3ccccc3)nn2)O[C@@H]1CO)c1cnccn1,,inactive: 17.9%
CCOc1ccc(CCNC(=O)c2c3c(nc4ccccc24)C(=O)N(C2CCCCC2)C3)cc1,,inactive: 7.5%
c1coc(-c2nnc(-c3cccs3)o2)c1,"inconclusive [activator, single point]",
Fc1ccc(CSc2nncn2NC/C=C/c2ccccc2)cc1,"inconclusive [activator, single point]",
CN1C(=O)/C(=C/c2ccccc2F)Sc2ccc(C(=O)N3CCCC3)cc21,"inconclusive [activator, single point]",
